Test results published in the antibiotic and cytotoxicity screens of Wong et al. (2023).
Some of the results follow.

The compounds below were run on S. aureus RN4220 (assay: growth inhibition call (relative growth <= 0.2)). Conditions: 50 µM.

Growth inhibition call, inactive:
COCC(=O)N(C)C[C@H]1Oc2cc(C#CC(C)(C)O)ccc2S(=O)(=O)N([C@@H](C)CO)C[C@H]1C
C[C@H]1CN([C@@H](C)CO)C(=O)c2c(c3ccccc3n2C)-c2ccccc2CO[C@@H]1CN(C)C(=O)CCC(F)(F)F
NC(=O)c1cccnc1N1CCN(C(=O)[C@@H]2CC(=O)N(C3CC3)C2)CC1
C[C@@H]1CN([C@H](C)CO)S(=O)(=O)c2ccc(C#Cc3ccccc3)cc2O[C@H]1CN(C)S(=O)(=O)c1cn(C)cn1
C[C@@H]1CN([C@@H](C)CO)C(=O)c2cc(C#CC3(O)CCCC3)cnc2O[C@H]1CN(C)C(=O)Cc1ccncc1
CCN1C(=O)CS/C1=N\N1CCOCC1
Nc1ncnc2c1ncn2[C@H]1O[C@@H](CO)[C@H](O)[C@@H]1S
COC(=O)C(Cc1ccccc1)NC(=O)C(N)CC(=O)O (configuration not stated)
CC(=O)O[C@@H]1[C@@H]2OC(=O)[C@H](OC(C)=O)[C@@H]2O[C@H]1n1ccc(=O)[nH]c1=O
C[C@@H]1CCCCO[C@@H](CN(C)CC2CC2)[C@@H](C)CN([C@H](C)CO)C(=O)c2cc(NC(=O)NC3CCCCC3)ccc2O1
CCCN(C)C[C@H]1OCCCC[C@@H](C)Oc2ccc(NC(=O)C3CCCCC3)cc2C(=O)N([C@H](C)CO)C[C@@H]1C
CN1C(=O)c2cc(NS(=O)(=O)c3cccc(F)c3)ccc2OC[C@H]2O[C@H](CC(=O)NCCN3CCCCC3)CC[C@H]21
COc1ccc(NC(=O)N(C)C[C@H]2OCCCC[C@H](C)Oc3ccc(NS(=O)(=O)c4cccs4)cc3C(=O)N([C@@H](C)CO)C[C@H]2C)cc1
COCC#Cc1ccc2c(c1)O[C@H](CN(C)S(C)(=O)=O)[C@H](C)CN([C@H](C)CO)S2(=O)=O
COCC#Cc1ccc2c(c1)O[C@H](CN(C)S(=O)(=O)c1ccc(C)cc1)[C@@H](C)CN([C@H](C)CO)S2(=O)=O
C[C@H](CO)N1C[C@H](C)[C@H](CN(C)C(=O)Nc2ccc3c(c2)OCO3)Oc2c(NC(=O)Nc3cccc4ccccc34)cccc2C1=O
C[C@@H]1CN([C@H](C)CO)C(=O)c2cc(NC(=O)NC3CCCCC3)ccc2O[C@@H]1CN(C)Cc1ccc(-c2ccccc2)cc1
